# Assay results as given in PubChem BioAssay AID1508624 (National Center for Advancing Translational Sciences (NCATS), 2021).
# Among all 48,000 compounds or so, about 120 (0.25%) were called active. Not shown: some 4% with an inconclusive outcome. The call rests on the fitted dose curve; in most records, active means well fitted activation curve with a large enough effect; inconclusive means small, poorly fitted or top-dose-only effect, or another doubt; inactive means no such curve, though single readings can be large or run the other way. The list shows a part of the results.
# Test: Primary qHTS for Identification of Small Molecule Activators of Huntingtin-Antisense Promoter Activity; further: nearly all actives have a fitted effect of over 55% in size
# Details: HEK293 HTT-AS promoter firefly luciferase reporter (activity 0% = vehicle and -100% = no light), 24 h; series mostly up to 57.5 µM; activity change, positive = activation: at the top concentration
# Procedure, shortened: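 Firefly luciferase readout (Dual-Glo, 10 min RT) after 24 h, 37 °C compound exposure (final up to 57.5 uM) of HEK293 reporter cells cultured 24 h beforehand; PTC124 at 50 uM final as control inhibitor; activity scaled vehicle 0%, zero RLU -100%.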
# Potency means the concentration at half of the fitted maximal effect.
Compound,"activity change, positive = activation",Potency
CCc1ccc(CNC(=O)c2ccc(NC(=O)N3CC(C)Sc4ccccc43)cc2)cc1 (stereo not drawn),inactive: -19.5%,
Cc1cc(NC(=O)CCS(=O)(=O)c2cc3c4c(c2)CCN4C(=O)CC3)ccc1Br,inactive: -0.692%,
CC(C)(C)c1ccc(C(=O)NCC(c2cccs2)S(=O)(=O)c2ccccc2)cc1 (stereo not drawn),inactive: -36.1%,
COc1ccc(CNC(=O)c2ccc(N3CCCC3)c(NC(=O)NCc3ccc(C)cc3)c2)cc1,inactive: 0.869%,
Cc1nn2c(-c3cccc(NC(=O)c4ccccc4)c3)nnc2c2ccccc12,inactive: -6.64%,
COc1ccc(-c2cc(C)no2)cc1S(=O)(=O)N1CCOc2ccccc21,inactive: -29.6%,
Cc1cccc(N2CCN(C(=O)CCc3nnc4n(CC(C)C)c(=O)c5ccccc5n34)CC2)c1C,inactive: -16.9%,
COc1ccc(-c2cn3c(n2)sc2cc(C(=O)Nc4ccc(C)c(C)c4)ccc23)cc1,inactive: 10.1%,
O=C(Cc1ccccc1)N(Cc1cccnc1)c1nc2c(F)cc(F)cc2s1,inactive: -27.7%,
CCOC(=O)c1c(C)oc2ccc(N(C(=O)Oc3ccccc3)S(=O)(=O)c3ccc(CC)cc3)cc12,inactive: -29%,
CC(C)c1ccc(OCC(=O)NC(Cc2c[nH]c3ccccc23)C(=O)O)cc1 (stereo not drawn),inactive: -6.81%,
Cc1cccc(OC(=O)CSc2nnc(CNC(=O)c3ccccc3)o2)c1C,inactive: -9.45%,
O=C(Nc1ccc(F)cc1)c1oc2ccccc2c1NC(=O)C12CC3CC(CC(C3)C1)C2,inactive: -8.98%,
COc1ccc(CCNC(=O)c2ccc3c(c2)N(Cc2c(F)cccc2Cl)C(=O)CS3)cc1OC,inactive: -41.9%,
CCc1ccccc1N(CC)C(=O)c1c(C)oc2ncnc(N3CCOCC3)c12,inactive: -7.13%,
CCOC(=O)C1CCN(c2nc3c(S(=O)(=O)c4ccccc4)nnn3c3ccsc23)CC1,inactive: -4.9%,
COc1ccc(NC(=O)Nc2nnc(C)s2)cc1,,active: 11.2 µM
Cc1ccccc1C(=O)Nc1ccc(OCc2cc(=O)n3cccc(C)c3n2)cc1,inactive: -11%,
CC1=C(c2ccc(C)c(C)c2)S(=O)(=O)N=C1N1CCC(C(=O)N2CCC(C(N)=O)CC2)CC1,inactive: -5.57%,
O=C1COc2cc(S(=O)(=O)NCc3ccco3)c(Cl)cc2N1,inactive: -3.38%,
O=c1c2oc3ccccc3c2n(Cc2ccc(Cl)cc2)c(=O)n1Cc1ccco1,inactive: -20.4%,
Cc1cccc(CN2CCC(CNC(=O)c3c(C)oc4ncnc(N5CCCCC5)c34)CC2)c1,inactive: 0.245%,
CCN(C(=O)C1CCC(CNS(=O)(=O)c2cccc3nsnc23)CC1)c1ccc(C)c(C)c1 (stereo not drawn),inactive: -35.4%,
CC(Sc1nc(=O)cc(N)n1CCc1ccccc1)C(=O)Nc1ccc(Cl)cc1 (stereo not drawn),inactive: 3.34%,
CCOC(=O)c1c(-c2ccc(Br)cc2)csc1NC(=O)c1ccc(F)cc1,inactive: -10.9%,

Compound,"activity change, positive = activation",Potency
COC(=O)c1ccccc1NC(=O)CSc1nc2ccccc2nc1Cc1ccccc1OC,inactive: -7.07%,
CN(C(=O)c1cc2nc(-c3ccco3)cc(C(F)(F)F)n2n1)c1ccc(OC(F)(F)Cl)cc1,inactive: -12.4%,
CCn1c(=O)sc2cc(NS(=O)(=O)c3ccc(F)c(C)c3)ccc21,inactive: -51.6%,
O=C(CCS(=O)(=O)c1cc(Br)cc2c1N(C(=O)C1CC1)CC2)NCc1ccc(Cl)cc1,inactive: -22.5%,
CCN(Cc1ccncc1)C(=O)C(CO)c1ccccc1 (stereo not drawn),inactive: -9.09%,
CN(C)CCOC1=Cc2ccccc2Sc2ccc(Cl)cc21,inactive: -14.2%,
COc1ccc(C2c3c(n(C)c4ccccc34)C(=O)N2CC(=O)Nc2ccc(C)c(Cl)c2)cc1 (stereo not drawn),inactive: -33.5%,
Cc1ccc(-c2nc(SCCOc3ccccc3C)n3[nH]c(=O)cc3n2)cc1,inactive: 3.86%,
Cc1ccc(NC(=O)Cn2cc(S(=O)(=O)c3ccc(C)cc3)c(=O)c3cc4c(cc32)OCO4)cc1,inactive: -21.5%,
COC(=O)Nc1nc2ccc(C(=O)C3CC3)cc2[nH]1,inactive: 6.52%,
CNS(=O)(=O)c1cn(CC(=O)N2CCN(c3ccccc3F)CC2)cc1S(=O)(=O)NC,inactive: -9.46%,
CCc1ccc(OC(C)c2nc(-c3ccc(-n4cccc4)cc3)no2)cc1 (stereo not drawn),inactive: -14.9%,
CCOc1ccc(CCNc2ncnc3onc(-c4ccc(Cl)cc4)c23)cc1OCC,inactive: -33.2%,
C[C@@]12C(=O)OC(=O)[C@]1(C)C1CCC2O1,inactive: -48.1%,
COc1ccc(NC(=O)C(c2ccc(C)cc2)N(C)C(=O)/C=C\c2ccc3c(c2)OCO3)cc1 (stereo not drawn),inactive: -18.4%,
OC(CCN1CCCCC1)(c1ccccc1)C1CC2C=CC1C2 (stereo not drawn),inactive,
O=S(=O)(NCc1csc(-c2ccccc2)n1)c1cccc(F)c1,inactive: -11%,
Cc1ccc(CN(Cc2ccco2)C(=O)COc2ccccc2C)cc1,inactive: -21.3%,
CCOC(=O)c1ccc(NC(=O)CCc2c(C)nc3c(c(C)nn3-c3ccccc3)c2C)cc1,inactive: -5.77%,
CC(=O)N1CCOc2cc(S(=O)(=O)NC(C)c3ccccc3)c(Cl)cc21 (stereo not drawn),inactive: -17.6%,
Cc1cccc(C(=O)Nc2sc3c(c2C(=O)N2CCCCC2)CCC(C)C3)c1 (stereo not drawn),inactive: -25.4%,
CCN(CC)CCNC(=O)c1c(C)oc2ncn(C)c(=O)c12,inactive: -2.41%,
CCN(CC)CC#CCOC(=O)C(O)(c1ccccc1)C1CCCCC1 (stereo not drawn),inactive: -10.6%,
Cc1oc2ccc(O)c(CN(C)Cc3ccccc3)c2c1C(=O)Nc1ccccc1,inactive: -33.9%,
O=C(CCc1cn(Cc2ccc(F)cc2)c2ccccc12)NCCc1ccc(Cl)cc1,inactive: -23%,

Compound,"activity change, positive = activation",Potency
Cn1cnc(S(=O)(=O)N2CCC(C(=O)NCc3ccccc3Cl)CC2)c1,inactive: -2%,
CCN(c1ccccc1)c1nnc(NC(=O)Nc2ccc(Br)cc2)s1,inactive: 15.2%,
Cc1ncc([N+](=O)[O-])n1CCO,inactive,
Cc1ccc(C(=O)CC2(O)C(=O)N(Cc3ccccc3F)c3ccccc32)cc1 (stereo not drawn),inactive: -33%,
COc1cccc(NC(=O)CSc2nc3ccc(NC(=O)c4cccs4)cc3s2)c1,inactive: -14.8%,
CCOC(=O)c1c(NC(=O)/C=C/c2ccc(C(C)C)cc2)sc2c1CCC2,inactive: -13.5%,
Cc1cc(C)cc(NC(=O)CN(c2cc(C(F)(F)F)ccc2Cl)S(=O)(=O)c2ccccc2)c1,inactive: -26.1%,
O=C(CCS(=O)(=O)c1nc(-c2cccs2)cc(C(F)(F)F)n1)Nc1ccc(OC(F)(F)F)cc1,inactive: -19.2%,
COC(=O)c1ccccc1NC(=O)C1=CC(c2ccc(C)cc2)=NS(=O)(=O)N1C,inactive: -22.7%,
COc1ccc(C2c3c(oc4ccccc4c3=O)C(=O)N2Cc2ccc3c(c2)OCO3)cc1 (stereo not drawn),inactive: -16.5%,
COc1ccc(OC)c(NC(=O)c2cc3c(n(-c4ccc(Cl)cc4)c2=O)CC(C)(C)CC3=O)c1,inactive: -17.1%,
O=C(CN1CCN(Cc2ccc(F)cc2)C1=O)NCc1ccccc1Cl,inactive: -1.11%,
COc1cccc(-c2nn(C)c3sc(C(=O)NCc4cc(OC)ccc4OC)cc23)c1,inactive: -22.8%,
CCN(CC)CCSC(=O)C(c1ccccc1)c1ccccc1,inactive: 2.33%,
O=C(Cn1c(SCc2cccc(F)c2)nc2cccnc21)Nc1ccc(F)c(Cl)c1,inactive: -14.5%,
COc1ccccc1NC(c1ccc(Cl)cc1)c1nnc(-c2cccc(F)c2)o1 (stereo not drawn),inactive: -23.2%,
CC(=O)c1ccc(NC(=O)CCc2c(C)nc3c(c(C)nn3-c3ccc(C)cc3)c2C)cc1,inactive: 25.7%,
CC(C)(C)c1ccc(Cn2c(Cc3ccccc3)nc3ccccc32)cc1,inactive: -27.5%,
CCOc1ccc(-c2nonc2NC(=O)c2oc3ccc(F)cc3c2C)cc1,inactive: -39.4%,
Cc1nn2c(=O)cc(CN(C)c3ccccc3)nc2s1,inactive: -8.77%,
O=C(COc1ccccc1Cl)Nc1cc(-c2ccccc2F)nn1-c1ccccc1,inactive: 2.84%,
Cn1nc(C(=O)N2CCN(c3ccc(Cl)cc3)CC2)c2c1-c1ccccc1SC2,inactive: 1.01%,
Cc1ccc(NC(=O)Cn2nnnc2-c2ccccc2N)cc1,inactive: -4.38%,
O=c1c2cc3c(cc2nc2sc(Nc4ccc(F)cc4F)nn12)OCO3,inactive: 36.1%,
O=C(C1CCCN(S(=O)(=O)c2cccs2)C1)N1CCN(c2cccc(Cl)c2)CC1 (stereo not drawn),inactive: -32.7%,

Compound,"activity change, positive = activation",Potency
Cc1ccc(C)c(N2CCN(c3ncnc4c3nc3n4CCCCC3)CC2)c1,inactive: -23.2%,
Cn1c(=O)c2nc(SCC(=O)Nc3cc(Cl)ccc3Cl)n(C)c2n(C)c1=O,inactive: 2.63%,
c1ccc(CNc2nc3ccccc3c3nc(-c4ccccc4)nn23)cc1,inactive: -2.59%,
NC(=O)CSc1nc2c(oc3ccccc32)c(=O)n1-c1ccccc1F,inactive: -13.8%,
COc1cccc(CNC(=O)CSc2ccc(-c3sc(-c4ccccc4)nc3C)nn2)c1,inactive: -25.7%,
COc1ccc(Cl)cc1NC(=O)N1CCC(CN2CCc3ccccc3C2)CC1,inactive: -17.4%,
CCOc1ccc(C(=O)NCC(c2ccco2)S(=O)(=O)c2ccc(C)cc2)cc1 (stereo not drawn),inactive: 5.41%,
CCN1c2ccccc2-n2cccc2C12CCN(C(=O)Nc1ccccc1C(F)(F)F)CC2,inactive: -9.79%,
C#CCN(C)Cc1ccccc1,inactive: -2.92%,
CCOc1ccc(OCC)c(NC(=O)C2CCCN(S(=O)(=O)c3ccc4c(c3)oc(=O)n4C)C2)c1 (stereo not drawn),inactive: -4.76%,
CCOc1ccc(CNC(=O)Cn2c(=O)c3cccn3c3ccc(F)cc32)cc1,inactive: -11.4%,
Cc1cccc(-c2nc(SCCCOc3ccccc3Cl)n3[nH]c(=O)cc3n2)c1,inactive: 6.88%,
CC(=O)Nc1ccc(Nc2ncnc3c2c(-c2ccccc2)cn3-c2ccccc2)cc1,inactive: -32.6%,
Cc1cc(C)cc(-n2c(SCC(=O)N3CCc4ccccc43)nc3c([nH]c4ccccc43)c2=O)c1,inactive: -21.2%,
O=C(Nc1ccc(F)c(Cl)c1)N1CCN(C(=O)c2nsc3ccccc23)CC1,inactive: -25.3%,
CCn1c(C(=O)N2CCC(C(=O)N3CCN(c4cccc(C)c4C)CC3)CC2)cc2sccc21,inactive: -51.3%,
CCOc1ccc2nc(N3CCN(C(=O)CS(=O)(=O)c4ccc(F)cc4)CC3)sc2c1,inactive: 8.49%,
COC(=O)c1c(NC(=O)c2ccc(S(=O)(=O)N3CCCC(C)C3)cc2)sc2c1CCN(C(C)C)C2 (stereo not drawn),inactive: -32%,
Cc1ccc(Cl)c2sc(N3CCN(C(=O)C4CC4)CC3)nc12,inactive: -18.6%,
CC(C)c1ccc(NC(=O)CSc2ncc3c(n2)-c2ccccc2N(C)S3(=O)=O)cc1,inactive: -14.4%,
CSc1ccc(CNCc2c(C(=O)O)c(C)n(Cc3ccc(F)cc3Cl)c2C)cc1,inactive: -15.7%,
Cc1ccccc1CNC(=O)c1c(C)oc2c1C1=NCCN1C=N2,inactive: -4.7%,
Cc1ccccc1Cn1cc(S(=O)(=O)c2ccc(Cl)cc2)c(=O)c2cc3c(cc21)OCO3,inactive: -5.04%,
